Data as given in patent US20170368082A1, “FORMULATIONS OF BRINCIDOFOVIR” (priority 2016, published 2017).
The source gives many values for each of these; only a part stands here.

Experiment: Tissue distribution by quantitative whole-body autoradiography (QWBA)
Type: in vivo, male Sprague Dawley and Long-Evans rats
Conditions: LE rat, 2 mg/kg IV
Method: The study utilized 4 groups of male SD rats (albino), and 3 groups of male LE rats (pigmented); a total of 39 rats. All animals were obtained from Hilltop Lab Animals, Inc. (Scottdale, Pa.). […] Rats in Group 5 were administered a single 2-h IV infusion of [^14C]brincidofovir at a target dose of 2 mg/kg. […] Three dosing formulations (one for high dose IV, one for low dose IV, and one for PO dose) were prepared at QPS on the day of dosing. The IV formulation for Groups 1, 2, 3, and 4 contained a vehicle of 10 mM sodium phosphate buffer in 5% dextrose solution at pH 8.0(±0.1).
Each animal, at their respective termination time points, was euthanized for QWBA analysis immediately after blood collection. One rat per time point per Group was euthanized as listed below.
The blood samples were maintained on wet ice (approximately 4° C.) and then centrifuged to obtain plasma within 1 h of the blood collection time. Centrifuge settings were recorded in the study notebook. Duplicate aliquots of plasma (0.050 mL) were analyzed for radioactivity using direct counting by LSC, and residual plasma was stored at approximately −70° C. and was saved for possible future analysis under a separate study protocol. Residual red blood cells were discarded as radioactive waste.
The pinna, distal limbs, hair, and tail were removed from each frozen carcass and each frozen carcass was embedded in an aqueous suspension of approximately 2% (w/v) carboxymethylcellulose and frozen into a block. The blocks were stored at approximately −20° C. prior to sectioning. Each blocked carcass was mounted on the object stage of a cryomicrotome (Leica CM3600 Cryomacrocut, Nussloch, Germany and Vibratome 9800, St. Louis, Mo.) maintained at approximately −20° C. and internal standards (3), which were plasma fortified with [^14C]-glucose at one concentration (approximately 0.05 μCi/mL), were placed into the frozen blocks, prior to sectioning, and were used for section thickness quality control. A number of whole-body sections (approximately 40 μm thick) were taken in the sagittal plane at various levels of interest using a whole-body cryomicrotome set at −20° C. Sagittal sections (20-50 μm thick) of frozen carcasses were exposed to phosphor imaging plates. Regions of images in tissues were converted to concentrations using standards. All of the major tissues, organs, and biological fluids were represented.
Tissue concentration data was determined for the following tissues and/or contents: adipose (brown and white), adrenal gland, bile (in duct), blood (cardiac), bone, bone marrow, brain (cerebrum, cerebellum, medulla), cecum (and contents), large intestine (and contents), epididymis, esophagus, eye (uvea and lens), Harderian gland, heart, kidney (cortex and medulla), liver, lung, lymph node, pancreas, pituitary gland, prostate gland, salivary gland, seminal vesicles, skeletal muscle, skin (pigmented and non-pigmented), small intestine (and contents), stomach (gastric mucosa and contents), spleen, spinal cord, testis, thymus, thyroid, and urinary bladder (and contents).
The imaging plate and sections were placed in light-tight exposure cassettes, in a copper-lined lead safe, for a 4-day exposure at room temperature. […] Quantification was performed by image densitometry using MCD image analysis software (v. 7.0, Interfocus Imaging Ltd) and a standard curve constructed from the integrated response [i.e., Molecular Dynamics Counts per square millimeter (MDC/mm^2)] and the nominal concentrations of the ^14C-calibration standards. The concentrations of radioactivity were expressed as the μg equivalents of [^14C]brincidofovir per gram sample (μg equiv/g). A lower limit of quantification (LLOQ) was applied to the data (See section 6.7.4).
Tissue concentrations that fell below the LLOQ were identified as being below the quantification limit (BQL). Tissue areas that were not visualized on autoradiographic images were identified as no sample (NS) and reported as BQL.

CCCCCCCCCCCCCCCCOCCCOP(=O)(O)CO[C@H](CO)Cn1ccc(N)nc1=O [[^14C] brincidofovir]
Concentration of radioactivity (Adipose (brown), 2 h): 0.356 μg equiv/g tissue | Concentration of radioactivity (Adipose (brown), 8 h): 0.099 μg equiv/g tissue | Concentration of radioactivity (Adipose (brown), 24 h): 0.050 μg equiv/g tissue | Concentration of radioactivity (Adipose (brown), 72 h): 0.039 μg equiv/g tissue | Concentration of radioactivity (Adipose (white), 2 h): 0.120 μg equiv/g tissue | Concentration of radioactivity (Adipose (white), 8 h): 0.015 μg equiv/g tissue | Concentration of radioactivity (Adipose (white), 24 h): 0.033 μg equiv/g tissue | Concentration of radioactivity (Adipose (white), 72 h): 0.005 μg equiv/g tissue | Concentration of radioactivity (Adrenal Gland, 2 h): 0.685 μg equiv/g tissue | Concentration of radioactivity (Adrenal Gland, 8 h): 0.440 μg equiv/g tissue | Concentration of radioactivity (Adrenal Gland, 24 h): 0.245 μg equiv/g tissue | Concentration of radioactivity (Adrenal Gland, 72 h): 0.167 μg equiv/g tissue | Concentration of radioactivity (Bile (in duct), 2 h): 32.663 μg equiv/g tissue | Concentration of radioactivity (Bile (in duct), 8 h): 3.781 μg equiv/g tissue | Concentration of radioactivity (Bile (in duct), 24 h): 0.097 μg equiv/g tissue | Concentration of radioactivity (Bile (in duct), 72 h): 0.069 μg equiv/g tissue | Concentration of radioactivity (Blood (cardiac), 2 h): 0.771 μg equiv/g tissue | Concentration of radioactivity (Blood (cardiac), 8 h): 0.178 μg equiv/g tissue | Concentration of radioactivity (Blood (cardiac), 24 h): 0.041 μg equiv/g tissue | Concentration of radioactivity (Blood (cardiac), 72 h): 0.010 μg equiv/g tissue | Concentration of radioactivity (Bone Marrow, 2 h): 0.596 μg equiv/g tissue | Concentration of radioactivity (Bone Marrow, 8 h): 0.225 μg equiv/g tissue | Concentration of radioactivity (Bone Marrow, 24 h): 0.163 μg equiv/g tissue | Concentration of radioactivity (Bone Marrow, 72 h): 0.074 μg equiv/g tissue | Concentration of radioactivity (Bone, 2 h): 0.022 μg equiv/g tissue | Concentration of radioactivity (Bone, 8 h): 0.017 μg equiv/g tissue | Concentration of radioactivity (Bone, 24 h): 0.019 μg equiv/g tissue | Concentration of radioactivity (Bone, 72 h): 0.010 μg equiv/g tissue | Concentration of radioactivity (Brain (cerebellum), 2 h): 0.172 μg equiv/g tissue | Concentration of radioactivity (Brain (cerebellum), 8 h): 0.036 μg equiv/g tissue | Concentration of radioactivity (Brain (cerebellum), 24 h): 0.020 μg equiv/g tissue | Concentration of radioactivity (Brain (cerebellum), 72 h): 0.012 μg equiv/g tissue | Concentration of radioactivity (Brain (cerebrum), 2 h): 0.150 μg equiv/g tissue | Concentration of radioactivity (Brain (cerebrum), 8 h): 0.030 μg equiv/g tissue | Concentration of radioactivity (Brain (cerebrum), 24 h): 0.016 μg equiv/g tissue | Concentration of radioactivity (Brain (cerebrum), 72 h): 0.006 μg equiv/g tissue | Concentration of radioactivity (Brain (medulla), 2 h): 0.101 μg equiv/g tissue | Concentration of radioactivity (Brain (medulla), 8 h): 0.027 μg equiv/g tissue | Concentration of radioactivity (Brain (medulla), 24 h): 0.019 μg equiv/g tissue | Concentration of radioactivity (Brain (medulla), 72 h): 0.006 μg equiv/g tissue | Concentration of radioactivity (Cecum (contents), 2 h): 0.051 μg equiv/g tissue | Concentration of radioactivity (Cecum (contents), 8 h): 30.663 μg equiv/g tissue | Concentration of radioactivity (Cecum (contents), 24 h): 3.948 μg equiv/g tissue | Concentration of radioactivity (Cecum (contents), 72 h): 0.191 μg equiv/g tissue | Concentration of radioactivity (Cecum, 2 h): 0.507 μg equiv/g tissue | Concentration of radioactivity (Cecum, 8 h): 0.696 μg equiv/g tissue | Concentration of radioactivity (Cecum, 24 h): 0.145 μg equiv/g tissue | Concentration of radioactivity (Cecum, 72 h): 0.090 μg equiv/g tissue | Concentration of radioactivity (Epididymis, 2 h): 0.328 μg equiv/g tissue | Concentration of radioactivity (Epididymis, 8 h): 0.088 μg equiv/g tissue | Concentration of radioactivity (Epididymis, 24 h): 0.089 μg equiv/g tissue | Concentration of radioactivity (Epididymis, 72 h): 0.037 μg equiv/g tissue | Concentration of radioactivity (Esophagus, 2 h): 0.425 μg equiv/g tissue | Concentration of radioactivity (Esophagus, 8 h): 0.346 μg equiv/g tissue | Concentration of radioactivity (Esophagus, 24 h): 0.134 μg equiv/g tissue | Concentration of radioactivity (Esophagus, 72 h): 0.036 μg equiv/g tissue | Concentration of radioactivity (Eye (lens), 2 h): BQL (BQL = Value is below the LLOQ) | Concentration of radioactivity (Eye (lens), 8 h): BQL (BQL = Value is below the LLOQ) | Concentration of radioactivity (Eye (lens), 24 h): BQL (BQL = Value is below the LLOQ) | Concentration of radioactivity (Eye (lens), 72 h): BQL (BQL = Value is below the LLOQ) | Concentration of radioactivity (Eye (uveal tract), 2 h): 0.352 μg equiv/g tissue | Concentration of radioactivity (Eye (uveal tract), 8 h): 0.144 μg equiv/g tissue | Concentration of radioactivity (Eye (uveal tract), 24 h): 0.092 μg equiv/g tissue | Concentration of radioactivity (Eye (uveal tract), 72 h): 0.061 μg equiv/g tissue | Concentration of radioactivity (Harderian Gland, 2 h): 0.300 μg equiv/g tissue | Concentration of radioactivity (Harderian Gland, 8 h): 0.162 μg equiv/g tissue | Concentration of radioactivity (Harderian Gland, 24 h): 0.116 μg equiv/g tissue | Concentration of radioactivity (Harderian Gland, 72 h): 0.100 μg equiv/g tissue | Concentration of radioactivity (Heart, 2 h): 0.373 μg equiv/g tissue | Concentration of radioactivity (Heart, 8 h): 0.109 μg equiv/g tissue | Concentration of radioactivity (Heart, 24 h): 0.040 μg equiv/g tissue | Concentration of radioactivity (Heart, 72 h): 0.025 μg equiv/g tissue | Concentration of radioactivity (Kidney Cortex, 2 h): 11.047 μg equiv/g tissue | Concentration of radioactivity (Kidney Cortex, 8 h): 8.188 μg equiv/g tissue | Concentration of radioactivity (Kidney Cortex, 24 h): 3.570 μg equiv/g tissue | Concentration of radioactivity (Kidney Cortex, 72 h): 0.772 μg equiv/g tissue | Concentration of radioactivity (Kidney Medulla, 2 h): 3.359 μg equiv/g tissue | Concentration of radioactivity (Kidney Medulla, 8 h): 1.362 μg equiv/g tissue | Concentration of radioactivity (Kidney Medulla, 24 h): 0.854 μg equiv/g tissue | Concentration of radioactivity (Kidney Medulla, 72 h): 0.257 μg equiv/g tissue | Concentration of radioactivity (Large Intestine (contents), 2 h): 0.059 μg equiv/g tissue | Concentration of radioactivity (Large Intestine (contents), 8 h): 48.477 μg equiv/g tissue | Concentration of radioactivity (Large Intestine (contents), 24 h): 4.244 μg equiv/g tissue | Concentration of radioactivity (Large Intestine (contents), 72 h): 0.335 μg equiv/g tissue | Concentration of radioactivity (Large Intestine, 2 h): 0.545 μg equiv/g tissue | Concentration of radioactivity (Large Intestine, 8 h): 1.028 μg equiv/g tissue | Concentration of radioactivity (Large Intestine, 24 h): 0.504 μg equiv/g tissue | Concentration of radioactivity (Large Intestine, 72 h): 0.128 μg equiv/g tissue | Concentration of radioactivity (Liver, 2 h): 34.158 μg equiv/g tissue | Concentration of radioactivity (Liver, 8 h): 10.631 μg equiv/g tissue
